In PubChem BioAssay AID903 (National Center for Advancing Translational Sciences (NCATS), 2007):
The campaign covered roughly 55,000 compounds. About 340 (0.62%) were called active. Inconclusive means that the source gave no clear call. Such entries were picked first, then a sample of the others. Calls follow the shape of the dose curve; as a rule, active = well fitted cell-killing curve with a large enough effect; inconclusive = small, poorly fitted or top-dose-only effect; inactive = no such curve, though single readings can be large or run the other way. Where the call is inconclusive, the potency comes from a doubtful curve fit.

Experiment: qHTS Screen for Compounds that Selectively Target Cancer Cells with p53 Mutations: Cytotoxicity of p53 Null Cells at the Permissive Temperature; also: nearly all actives have a fitted effect of over 55% in size;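 as to activity change, negative = cytotoxicity: 0% = DMSO only and -100% = full killing by 100 µM tamoxifen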
Details: H1299-neo p53 null cells, ATP luminescence, 24 h, 32C; series mostly up to 46.1 µM; activity change, negative = cytotoxicity: at the top concentration
Text: NIH Chemical Genomics Center [NCGC] NIH Molecular Libraries Screening Centers Network [MLSCN] MLSCN Grant: 1 X01 MH079844-01 Assay Submitter (PI): Dr. SUN, YI, University of Michigan NCGC Assay Overview: Synthetic Lethal Screen for Compounds to Kill Cancer Cells with p53 Mutation. Tumor suppressor gene p53 serves as a major cellular barrier against tumorigenesis. […] The goal of this screening is to identify small molecule probes that selectively kill cancer cells with mutations in p53. This screening was carried out using two lines of H1299 lung cancer cells. The H1299-p53 A138V line express a temperature sensitive p53 mutant (p53ts) in which the mutant p53 protein (A138V) is in the mutant confirmation when grown at 39C (the nonpermissive temperature) and in the wild type conformation when grown at 32C (the permissive temperature). A H1299-neo line (p53 null) grown at both 39C and 32C were used as counter-screens to filter out false positive associated with temperature shifting. The small molecular compounds that selectively target mutant p53-containing cancer cells were selected as candidate probes for further study. A cytotoxicity assay based on the measurement of ATP contents in cells was used in this screen. Concentration-responses of all the compounds in the library collection were determined in qHTS using the cell lines and temperature conditions as above.
NCGC Assay Protocol Summary: Both the H1299-p53A138V and H1299-neo cell lines were provided by Dr.Yi Sun, a PI at the University Michigan. The cells were maintained and cultured at 37C. The resuspended frozen cells were used to plate the cells in the 1536-well assay plates at a density of 600 cells per well in 5 ul medium. The assay plates with the cells were incubated at 37C for 16 to 30 hours before the experiments. The library compounds in DMSO solution were added to the cells in assay plates and incubated 24 hours at 39C (for mutant p53 conformation) or 32C (for normal p53 conformation as control). An ATP_lite assay kit (PerkinElmer) was used to determine the cell viability. Tomaxifen (100uM) was used as the positive control for cell killing. Data were normalized to the controls for basal activity (DMSO only) and 100% killing (100uM tamoxifen). AC50 values were determined from concentration-response data modeled with the standard Hill equation. P53 assay protocol: 1. Reagent; 5 uL H1299-p53A138V or H1299-neo cell cells/well 2. Time; overnight; 37C incubation 3. Compounds; 23 nL; 5.9 nM to 46 uM 4. Controls; 23 nL; Tamoxifen 100 uM 5. Time; 24 hr; 32C incubation 6. Reagent; 3 uL; ATP_Lite reagent 7. Time; 20 min; Room Temperature 8. Detection; Luminescence; Viewlux plate reader Keywords: p53, synthetic lethal, cancer, cell viability, cytotoxicity, H1299 cell line, luminescence, MLSMR, MLSCN, NIH Roadmap, qHTS, NCGC
Potency is read from the fitted curve at half-maximal effect; tags tell the direction and shape of the fitted curve.

With `CCOc1ccc(NC(=O)CSc2oc(-c3ccccc3)nc2S(=O)(=O)c2ccc(Cl)cc2)cc1` as the compound, how does the Potency read?
The Potency was inconclusive: 12.6 µM [cytotoxic, partial curve].

Which activity change, negative = cytotoxicity does the source give for `Nc1c(C(=O)Nc2ccc(OC(F)(F)F)cc2)sc2nc3c(cc12)N1CCC3CC1` here?
Its activity change, negative = cytotoxicity is inactive: 4.47% [at 9.22 µM].

For `Cc1oc(-c2ccccc2F)nc1CS(=O)(=O)CC(=O)N1CCN(c2cccc(C(F)(F)F)c2)CC1`, which Potency is on record?
The Potency was inconclusive: 5.01 µM [cytotoxic, single point].

For `COc1cccc(-n2c(SCC(=O)c3ccc(Cl)cc3)nc3c([nH]c4ccccc43)c2=O)c1`, which Potency is on record?
The Potency was inconclusive: 4.47 µM [cytotoxic, single point].

With `Cn1cnc2cc(NC(=O)c3ccc(Cl)cc3)ccc21` as the compound, how does the Potency read?
The Potency was inconclusive: 11.2 µM [cytotoxic, single point].

Which Potency does the source give for `CC(=O)c1cccc(NC(=O)c2cc3c(s2)-c2c(C)cccc2OC3)c1` here?
Its Potency is active: 10 µM.

With `Cc1oc2cc3oc(=O)c(CCC(=O)N4CCCCC4)c(C)c3cc2c1C` as the compound, how does the “activity change, negative = cytotoxicity” value read?
The value was inactive: 7.1%.

Which Potency does the source give for `O=C(Nc1nc2ccccc2s1)c1cccn(Cc2ccccc2)c1=O` here?
Its Potency is inconclusive: 3.16 µM [cytotoxic, full curve, poor fit].

With `CCOc1ccc(C(NC(=O)c2cc(OC)c(OC)c(OC)c2)c2cc(Cl)c3cccnc3c2O)cc1` (stereo unspecified) as the compound, how does the Potency read?
Its Potency is inconclusive: 3.55 µM [cytotoxic, single point].

Which Potency does the source give for `COc1ccccc1CNC(=O)CCNS(=O)(=O)c1ccc2c(c1)oc(=O)n2C` here?
Its Potency is inconclusive: 31.6 µM [cytotoxic, single point].

With `CC(=O)c1ccc(NC(=O)c2sc3nc4c(cc3c2N)N2CCC4CC2)cc1` as the compound, how does the Potency read?
Its Potency is inconclusive: 31.6 µM [cytotoxic, single point].

With `Cc1ccc(-c2nn(CCC(=O)Nc3ccc(OC(F)(F)F)cc3)c(=O)c3ccccc23)cc1` as the compound, how does the Potency read?
Its Potency is inconclusive: 31.6 µM [cytotoxic, single point].

For `Nc1c(C(=O)Nc2ccc(Cl)c(C(F)(F)F)c2)sc2nc3c(cc12)N1CCC3CC1`, which Potency is on record?
Its Potency is inconclusive: 31.6 µM [cytotoxic, single point].

For `CCOc1ccc(CN(CCc2ccc3c(c2)OCO3)Cc2cccc(OC)c2)cc1`, which “activity change, negative = cytotoxicity” value is on record?
Its value is inactive: -16.5%.

Which Potency does the source give for `CC(Oc1ccccc1)C(=O)Nc1ccc(C(=O)OCc2cc(=O)n3nc(C4CC4)sc3n2)cc1` (stereo unspecified) here?
The Potency was inconclusive: 1.58 µM [cytotoxic, full curve, poor fit].

Which Potency does the source give for `Cc1ccc(-n2nc3c(N4CCC(C(=O)NCc5ccccc5Cl)CC4)nnc(C)c3c2C)cc1` here?
Its Potency is inconclusive: 31.6 µM [cytotoxic, single point].

With `COC(=O)C1CN(C#N)N(c2ccc(Cl)cc2)C12c1ccccc1-c1ccccc12` (stereo unspecified) as the compound, how does the Potency read?
The Potency was active: 8.91 µM.

Which Potency does the source give for `COc1ccc(CCNC(=O)CCn2c(=O)c3ccccc3n(Cc3ccc(Cl)cc3)c2=O)cc1OC` here?
Its Potency is inconclusive: 31.6 µM [cytotoxic, single point].

Which “activity change, negative = cytotoxicity” value does the source give for `Cc1cccc(CN2CC=C(c3noc(CCC(=O)Nc4ccc(C)c(F)c4)n3)CC2)c1` here?
The value was inactive: -3.92%.

Which Potency does the source give for `Cc1ccc(-n2sc3ccccc3c2=O)cc1` here?
The Potency was inconclusive: 25.1 µM [cytotoxic, single point].

Which Potency does the source give for `CCOc1ccc(NC(=O)c2cc3c(C)nn(-c4ccccc4)c3s2)cc1` here?
The Potency was inconclusive: 31.6 µM [cytotoxic, single point].

For `COc1ccc(C(=O)Nc2ccc(Cl)cc2C(=O)c2ccccc2)c(OC)c1`, which “activity change, negative = cytotoxicity” value is on record?
The value was inactive: 1.23%.

With `COc1cc2[nH]c(=O)n(CCCCCC(=O)N3CCN(c4cccc(C(F)(F)F)c4)CC3)c(=O)c2cc1OC` as the compound, how does the Potency read?
Its Potency is inconclusive: 31.6 µM [cytotoxic, single point].

With `N#Cc1cc2c(nc1SCC(=O)Nc1cccc(C(F)(F)F)c1)C1CCN2CC1` as the compound, how does the “activity change, negative = cytotoxicity” value read?
The value was inactive: 6.13%.

For `Nc1c(C(=O)Nc2ccc(F)c(Cl)c2)sc2nc3c(cc12)N1CCC3CC1`, which Potency is on record?
Its Potency is inconclusive: 25.1 µM [cytotoxic, single point].

Which Potency does the source give for `COc1c(C)cc(Br)cc1C(=O)Nc1ccc(-c2nc3ncccc3o2)cc1` here?
The Potency was inconclusive: 25.1 µM [cytotoxic, single point].

For `Cc1cccn2c(=O)cc(COc3cccc(NC(=O)COc4ccc(F)cc4)c3)nc12`, which Potency is on record?
Its Potency is active: 12.6 µM.

For `CC(C)(C)c1ccc(S(=O)(=O)Nc2ccc(O)c(Sc3nc4ccccc4s3)c2)cc1`, which “activity change, negative = cytotoxicity” value is on record?
Its value is inactive: 42.8%.

For `CC(C)Oc1ccc(NC(=O)c2cc3ccccc3o2)cc1`, which Potency is on record?
The Potency was active: 10 µM.

For `COc1cccc(C2SCC(=O)Nc3c2c(C)nn3-c2ccc(C)c(Cl)c2)c1OC` (stereo unspecified), which “activity change, negative = cytotoxicity” value is on record?
The value was inactive: -8.61%.

For `CC(C)(C)c1ccc(C(=O)Nc2ccc3nc(SCC(=O)N4CCCC4)sc3c2)cc1`, which Potency is on record?
Its Potency is active: 20 µM.

For `CC(C)Cc1nc2cccnc2n1C1CCNCC1`, which Potency is on record?
Its Potency is inconclusive: 5.62 µM [cytotoxic, single point].

With `COC(=O)C[C@]1(C(=O)OC)CN(C#N)N(c2ccc(Cl)cc2)C12c1ccccc1-c1ccccc12` as the compound, how does the Potency read?
Its Potency is inconclusive: 10 µM [cytotoxic, partial curve].

Which Potency does the source give for `CCCOc1ccc(C(=O)Nc2ccc(-c3cc4ccccc4oc3=O)c(C)c2)cc1` here?
Its Potency is inconclusive: 31.6 µM [cytotoxic, single point].

Which Potency does the source give for `Cc1ccc(C(=O)Nc2ccccc2)cc1S(=O)(=O)N1CCCC1` here?
Its Potency is inconclusive: 35.5 µM [cytotoxic, single point].

Which Potency does the source give for `CCOC(=O)c1ccc(N2C(=O)c3n[nH]c(-c4cccs4)c3C2c2ccc(Cl)cc2Cl)cc1` (stereo unspecified) here?
The Potency was inconclusive: 35.5 µM [cytotoxic, single point].

With `COc1ccc(CNC(=O)Cn2c(SCC(=O)Nc3ccc(C)c(C)c3)nc3ccccc32)cc1` as the compound, how does the Potency read?
The Potency was inconclusive: 31.6 µM [cytotoxic, single point].

For `COc1ccc(CCNC(=O)c2cnc3sc(N4CCCCCC4)nn3c2=O)cc1`, which Potency is on record?
Its Potency is inconclusive: 0.0398 µM [cytotoxic, full curve, poor fit].

With `O=C(OCc1cc(=O)n2nc(C3CC3)sc2n1)c1ccc(NC(=O)c2ccccc2Cl)cc1` as the compound, how does the Potency read?
Its Potency is inconclusive: 3.16 µM [cytotoxic, full curve, poor fit].

For `Cc1ccc(Cl)cc1Nc1nn2c(=O)c3ccc(C(=O)NCc4cccs4)cc3nc2s1`, which Potency is on record?
Its Potency is inconclusive: 20 µM [cytotoxic, single point].

Which Potency does the source give for `Nc1c(C(=O)Nc2cccc(Br)c2)sc2nc3c(cc12)N1CCC3CC1` here?
The Potency was inconclusive: 31.6 µM [cytotoxic, single point].

For `CCOc1ccc(C(=O)Nc2cc(NC(=O)c3ccco3)ccc2OC)cc1Br`, which Potency is on record?
Its Potency is inconclusive: 15.8 µM [cytotoxic, single point].

Which Potency does the source give for `CCc1ccccc1NC(=O)c1cccn(Cc2ccccc2F)c1=O` here?
The Potency was inconclusive: 5.62 µM [cytotoxic, single point].

Which “activity change, negative = cytotoxicity” value does the source give for `CN1CCN(c2oc(-c3ccc(COc4ccccc4)o3)nc2C#N)CC1` here?
The value was inactive: -11.6%.

With `O=C(Cn1c(=O)n(Cc2ccccc2)c(=O)c2sc3ccccc3c21)NCc1ccccc1Cl` as the compound, how does the Potency read?
The Potency was inconclusive: 31.6 µM [cytotoxic, single point].

With `CCCCOc1ccc(CNC(=O)c2cc3n(n2)CCCN(Cc2ccc(C)cc2)C3=O)cc1` as the compound, how does the “activity change, negative = cytotoxicity” value read?
Its value is inactive: 66%.

Which Potency does the source give for `COc1ccc(OCCn2c(NC(=O)c3ccc(OC)cc3)nc3ccccc32)cc1` here?
The Potency was inconclusive: 31.6 µM [cytotoxic, single point].

Which “activity change, negative = cytotoxicity” value does the source give for `CCCCNc1ccncc1S(=O)(=O)NC(=O)NC(C)C` here?
Its value is inactive: -5.56%.

With `COc1cc(OC)cc(C(=O)Nc2nc(-c3nnn(-c4ccc(C)cc4)c3C)ns2)c1` as the compound, how does the Potency read?
Its Potency is inconclusive: 31.6 µM [cytotoxic, single point].

With `CCc1ccc(OCC(=O)Nc2cc3oc4ccccc4c3cc2OC)cc1` as the compound, how does the Potency read?
The Potency was inconclusive: 31.6 µM [cytotoxic, single point].

For `Cc1ccccc1-n1c(/C=C/c2ccc(O)cc2)nc2ccccc2c1=O`, which Potency is on record?
Its Potency is inconclusive: 31.6 µM [cytotoxic, single point].
